Assay results published in patent US12122821B2, “Regulation of glucose metabolism using anti-CGRP antibodies” (H. LUNDBECK A/S, priority 2013, dated 2024).
Entries after “also recorded” stand apart in the source; their conditions may differ.

Tests used:
HFD rats [1] = assay: Body weight and food intake in high fat/high fructose diet (HFD) rats (Example 2); assay type: in vivo, rat; conditions: vs HFD vehicle
Description: After 6 weeks of HFD rats were randomized to treatment groups according to their glucose intolerance (AUC calculation during an oral glucose tolerance test (OGTT)) and their HOMA-IR (insulin resistance index).
(§1) Body weight and food consumption were measured 3 times per week until 10 days of treatment. HOMA-IR was measured on day 10 and 15. A 2-step clamp (5 mU/kg/min and then 15 mU/kg/min insulin) was performed on day 15 or 16. Glucose Turnover (GTO) was assessed using ^3H-glucose tracer infusion during the clamp procedure.
Ab14 (10, 30, 100 mg/kg) and the vehicle were weekly administered via i.v. route (via the caudal vein, under isoflurane anaesthesia), in the morning, on day 1 and day 8 of treatment.
Body weight was measured once a week during the first six week of HFD. Body weight was measured 3 times per week during the first 10 days of treatment. Food consumption was measured over 48 h or 72 h, just before treatment and 3 times per week during treatment until surgery procedure (day 11).

[2] = test system: Zucker diabetic fatty (ZDF) rat; conditions: ZDF rats
Description: Each pancreas was divided into 2 parts (longitudinal cut). One piece was fixed in 10% formalin solution for histopathological processing. The other piece of pancreas was flash frozen and kept at −80° C. for determination of insulin and proinsulin levels.
Each pancreas sample was fixed in 4% formalin during 24-48 hours maximum; the volume of formalin was 5-10 times higher than the sample volume to assure appropriate fixation. After 48 h, the samples were placed in 70% ethanol.

Normal rats = assay: Individual tissue glucose utilization rate (14C-2-DOG) during clamp in normal rats (Example 1); assay type: in vivo, rat; conditions: Ab14 100 mg/kg i.v., vs vehicle
Description: To determine the individual tissue glucose utilization rate, a bolus injection of 100 μCi per rat of deoxy-D-glucose 2-^14C (^14C-2-DOG) through the femoral vein was performed 60 min before the end of the D-[3-^3H]-glucose infusion. Plasma ^14C-2-DOG disappearance and glucose concentration were determined in 10 μL drops of blood sampled from the tip of the tail vein at 0, 5, 10, 15, 20, 25, 30, 45, and 60 minutes after the injection. At the end of the experiment, vastus lateralis (VL), extensor digitorum longus (EDL) and soleus muscles, epididymal and inguinal white adipose tissues, heart apex, and skin (as negative control) were dissected, flash frozen and kept at −80° C. A piece of each tissue was dissolved in 1M NaOH and then neutralized with 1M HCl. […]. D-2-^14C deoxyglucose was differentially precipitated by the use of a zinc hydroxide (0.3M) solution or a perchloric acid solution (6%). Both radioactivity contents were measured to evaluate the glucose uptake expressed as ng/mg/min.

HFD rats [3] = assay: 2-step hyperinsulinemic-euglycemic clamp in HFD rats (Example 2); assay type: in vivo, rat; conditions: vs HFD vehicle
Description: Six-week HFD fed rats were treated for 2 weeks with Ab14, and a 2-step hyperinsulinemic euglycemic clamp was performed to assess insulin sensitivity. A physiological dose of insulin was used during the first step and a pharmacological dose of insulin was used during the second step to assess the effects of […] insulin sensitivity, respectively, under these two conditions.
as §1
On day 15 or 16, the 2-step hyperinsulinemic-euglycemic clamp was performed using ^3H-glucose as a tracer (except in the normal chow group), and 5 mU/kg/min insulin infusion from 02:00 pm (T0) to 04:00 pm (T+2 h), followed by 15 mU/kg/min insulin infusion from 04:00 pm to 05:30 pm (t+3.5 h). A glucose solution was infused in parallel and the infusion rate was adjusted to reach the steady state (100±10 mg/dL). Blood glucose was measured from the tip of the tail using glucometers every 10 minutes. Blood was collected (10 μL) regularly from the tip of the tail during the steady states of each step.
The following parameters were assessed: Glucose infusion rate (in all groups); Whole body glucose utilization rate (except in the normal chow group); Hepatic glucose production rate (except in the normal chow group); Whole body glycogen and glycolytic rates (except in the normal chow group).

[4] = Ab14 10, 30, 100 mg/kg/week i.v., metformin 200 mg/kg/day
[5] = Ab14 60 mg/kg/wk., Met. 200 mg/kg/day
[6] = 5 mU/kg/min insulin, Ab14 30 mg/kg, ns
[7] = 15 mU/kg/min insulin, Ab14 30 mg/kg
[8] = 15 mU/kg/min insulin, Ab14 100 mg/kg

B1: Ab14: humanized anti-CGRP antibody consisting of the light and heavy polypeptide chains of SEQ ID NOs 132 and 134 (protein)
light: QVLTQSPSSLSASVGDRVTINCQASQNVYNNNYLAWYQQKPGKVPKQLIYSTSTLASGVPSRFSGSGSGTDFTLTISSLQPEDVATYYCLGSYDCSRGDCFVFGGGTKVEIKRTVAAPSVFIFPPSDEQLKSGTASVVCLLNNFYPREAKVQWKVDNALQSGNSQESVTEQDSKDSTYSLSSTLTLSKADYEKHKVYACEVTHQGLSSPVTKSFNRGEC
heavy: EVQLVESGGGLVQPGGSLRLSCAVSGIGLSSYYMQWVRQAPGKGLEWVGVIGSDGKTYYATWAKGRFTISRDNSKTTVYLQMNSLRAEDTAVYFCTRGDIWGQGTLVTVSSASTKGPSVFPLAPSSKSTSGGTAALGCLVKDYFPEPVTVSWNSGALTSGVHTFPAVLQSSGLYSLSSVVTVPSSSLGTQTYICNVNHKPSNTKVDARV[here human IgG1 Fc with changes without letters]
body weight (HFD rats [1]; 10 days of treatment, Ab14 10, 30, 100 mg/kg/week i.v., metformin 200 mg/kg/day): no effects
body weight gain (HFD rats [1]; Ab14 30 mg/kg, metformin 200 mg/kg): slightly decreased
decrease of cumulative food consumption (HFD rats [1]; [4]): no effect
food consumption (follow-up food intake) (HFD rats [1]; [4]): no effect
vacuolization and islet fibrosis severity ([2]; AB14 60 mg/kg, metformin, or combined, vs vehicle ZDF): trend towards a decrease
Arteries, medial/intimal hypertrophy, severity 0, incidence [2, 5]: 6
Arteries, medial/intimal hypertrophy, severity 1, incidence [2, 5]: 3
Brown pigment-laden, severity 1, incidence [2, 5]: 7
Brown pigment-laden, severity 2, incidence [2, 5]: 2
Eosinophilic granulocyte infiltration, severity 0, incidence [2, 5]: 8
Eosinophilic granulocyte infiltration, severity 1, incidence [2, 5]: 1
Exocrine cell vacuolation, severity 0, incidence [2, 5]: 8
Exocrine cell vacuolation, severity 1, incidence [2, 5]: 1
Fat tissue: Fat tissue necrosis, group mean score [2, 5]: 0
Interstitial fibroplasia/fibrosis, severity 0, incidence [2, 5]: 8
Interstitial fibroplasia/fibrosis, severity 1, incidence [2, 5]: 1
Interstitial hemorrhage, severity 0, incidence [2, 5]: 3
Interstitial hemorrhage, severity 1, incidence [2, 5]: 4
Interstitial hemorrhage, severity 2, incidence [2, 5]: 2
Islet Cell Vacuolation, severity 1, incidence [2, 5]: 6
Islet Cell Vacuolation, severity 2, incidence [2, 5]: 3
Islet Fibrosis, severity 1, incidence [2, 5]: 4
Islet Fibrosis, severity 2, incidence [2, 5]: 3
Islet Fibrosis, severity 3, incidence [2, 5]: 2
Islet cell anisocytosis/anisokaryosis, severity 0, incidence [2, 5]: 5
Islet cell anisocytosis/anisokaryosis, severity 1, incidence [2, 5]: 4
Islet cell mitosis, severity 0, incidence [2, 5]: 7
Islet cell mitosis, severity 1, incidence [2, 5]: 2
Islet cell single cell necrosis, severity 0, incidence [2, 5]: 5
Islet cell single cell necrosis, severity 1, incidence [2, 5]: 4
Islet granulocytic infiltration, severity 0, incidence [2, 5]: 5
Islet granulocytic infiltration, severity 1, incidence [2, 5]: 4
Islet hemorrhage, severity 0, incidence [2, 5]: 7
Islet hemorrhage, severity 1, incidence [2, 5]: 2
Large/Giant Islets, severity 1, incidence [2, 5]: 4
Large/Giant Islets, severity 2, incidence [2, 5]: 3
Large/Giant Islets, severity 3, incidence [2, 5]: 2
Lymph node: Brown pigment-laden macrophages, group mean score [2, 5]: 0
Lymph node: Eosinophilic granulocyte infiltration, group mean score [2, 5]: 0.5
Lymph node: Erythrophagocytosis—sinusoidal, group mean score [2, 5]: 1
Lymph node: Pink protein rich sinusoidal lymph, group mean score [2, 5]: 0
Lymph node: Sinusoidal hemorrhage, group mean score [2, 5]: 0
Lymph node: Sinusoidal mast cells, group mean score [2, 5]: 0
Mononuclear cell infiltration, severity 1, incidence [2, 5]: 9
Pancreas: Arteries, medial/intimal hypertrophy, group mean score [2, 5]: 0
Pancreas: Brown pigment-laden macrophages, group mean score [2, 5]: 1
Pancreas: Eosinophilic granulocyte infiltration, group mean score [2, 5]: 0
Pancreas: Exocrine cell vacuolation, group mean score [2, 5]: 0
Pancreas: Interstitial fibroplasia/fibrosis, group mean score [2, 5]: 0
Pancreas: Interstitial hemorrhage, group mean score [2, 5]: 1
Pancreas: Islet cell anisocytosis/anisokaryosis, group mean score [2, 5]: 0.5
Pancreas: Islet cell mitosis, group mean score [2, 5]: 0
Pancreas: Islet cell single cell necrosis, group mean score [2, 5]: 0.5
Pancreas: Islet cell vacuolation, group mean score [2, 5]: 1
Pancreas: Islet fibrosis, group mean score [2, 5]: 2
Pancreas: Islet granulocytic infiltration, group mean score [2, 5]: 0
Pancreas: Islet hemorrhage, group mean score [2, 5]: 0
Pancreas: Large/giant islet(s), group mean score [2, 5]: 1.5
Pancreas: Mononuclear cell infiltration, group mean score [2, 5]: 1
Pancreas: Pancreatic ductule hyperplasia, group mean score [2, 5]: 0
Pancreatic ductule hyperplasia, severity 0, incidence [2, 5]: 9
change of glucose utilization in the heart (Normal rats; metformin 500 mg/kg p.o.): 21%
glucose utilization rate in white adipose tissues (deep and subcutaneous) (Normal rats; metformin 500 mg/kg p.o.): did not affect
increase of glucose utilization in mixed vastus lateralis muscle (VL) (Normal rats; metformin 500 mg/kg p.o.): 70%
increase of glucose utilization in glycolytic extensor digitorum longus muscle (EDL) (Normal rats; metformin 500 mg/kg p.o., NS): 26%
increase of glucose utilization in oxidative soleus muscle (Normal rats; NS): 27%
increase of mean GIR, first step (HFD rats [3]; 5 mU/kg/min insulin, Ab14 10 mg/kg, ns): 26%
increase of glucose turn over (GTO), first step (HFD rats [3]; [6]): 17%
increase of mean GIR, first step (HFD rats [3]; [6]): 37%
increase of mean GIR, first step (HFD rats [3]; 5 mU/kg/min insulin, Ab14 100 mg/kg, ns): 29%
GIR (plateau) during the first clamp step (HFD rats [3]; 5 mU/kg/min insulin, Ab14 treated groups (10, 30, 100 mg/kg), metformin 200 mg/kg/day): Increased GIR; also recorded: slightly higher
increase of mean GIR, second step (HFD rats [3]; 15 mU/kg/min insulin, Ab14 10 mg/kg): 19%
decrease of HGP, second step (HFD rats [3]; 15 mU/kg/min insulin, Ab14 10 mg/kg, ns): 78%
HGP, second step (HFD rats [3]; [7]): completely inhibited
increase of mean GIR, second step (HFD rats [3]; [7]): 36%
HGP, second step (HFD rats [3]; [8]): completely inhibited
increase of mean GIR, second step (HFD rats [3]; [8]): 28%
